Results as given in PMC6016943.
Results are given in words; binding and its absence hold for the method and conditions named. For some assays here: Binding seen in cells or lysates may run through a third protein. Some binding calls cover weakened binding; strength is not graded here. For some assays here: Sequences can lack the tags named with a protein. Blank lines part the entries; values can stand above or below the binder they belong to.

Key:
[1] = target: T1, AHA2-YFP^N (Arabidopsis thaliana) (UniProt P19456); test: split reporter; BiFC with split YFP, transient co-expression in Nicotiana benthamiana leaf epidermal cells, confocal microscopy three days after infiltration
T1 sequence: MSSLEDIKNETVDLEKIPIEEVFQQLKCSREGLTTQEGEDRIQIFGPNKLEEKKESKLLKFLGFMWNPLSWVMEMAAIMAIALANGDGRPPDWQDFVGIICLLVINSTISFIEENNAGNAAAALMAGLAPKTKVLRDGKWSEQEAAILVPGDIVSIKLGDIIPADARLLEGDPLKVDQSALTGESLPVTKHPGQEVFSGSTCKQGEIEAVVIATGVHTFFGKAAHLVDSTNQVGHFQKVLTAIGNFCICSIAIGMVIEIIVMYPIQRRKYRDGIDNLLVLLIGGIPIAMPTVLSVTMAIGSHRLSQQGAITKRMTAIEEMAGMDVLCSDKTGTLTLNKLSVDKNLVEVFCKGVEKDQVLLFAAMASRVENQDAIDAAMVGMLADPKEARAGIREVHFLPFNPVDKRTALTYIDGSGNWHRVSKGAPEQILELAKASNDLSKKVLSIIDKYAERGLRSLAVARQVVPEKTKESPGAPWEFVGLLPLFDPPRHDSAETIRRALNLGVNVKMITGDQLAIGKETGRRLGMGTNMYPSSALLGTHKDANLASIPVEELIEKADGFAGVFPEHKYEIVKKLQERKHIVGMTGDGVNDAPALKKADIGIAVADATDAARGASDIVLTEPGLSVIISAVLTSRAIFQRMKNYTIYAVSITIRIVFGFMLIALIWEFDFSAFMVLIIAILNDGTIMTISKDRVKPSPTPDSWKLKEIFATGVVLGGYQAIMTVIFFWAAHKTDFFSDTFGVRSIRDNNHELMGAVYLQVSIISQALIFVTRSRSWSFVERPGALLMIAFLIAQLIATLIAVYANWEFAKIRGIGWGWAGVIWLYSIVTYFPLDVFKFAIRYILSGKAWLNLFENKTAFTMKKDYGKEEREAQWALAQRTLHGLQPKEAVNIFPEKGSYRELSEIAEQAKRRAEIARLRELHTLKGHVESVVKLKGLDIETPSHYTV

[2] = target: T2, SAUR19 (SMALL AUXIN UP RNA 19), yeast two-hybrid bait from pBTM116-SAUR19 (Arabidopsis thaliana) (UniProt Q9FJG1); test: two-hybrid; lexA-based yeast two-hybrid; bait pBTM116-SAUR19, prey pACT2-PP2C.D, strain L40ccU3; selection media, room temperature, 3 to 6 days
T2 sequence: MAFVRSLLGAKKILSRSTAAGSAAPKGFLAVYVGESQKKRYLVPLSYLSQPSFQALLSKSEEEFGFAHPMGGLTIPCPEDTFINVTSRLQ

[3] = target: T3, GFP-SAUR19 (Arabidopsis thaliana) (UniProt Q9FJG1); test: co-IP; solubilized microsomal proteins (300-400 ug) of 6-day-old etiolated Arabidopsis seedlings co-expressing PP2C.D-HA and GFP-SAUR19; precipitated with anti-GFP antibody (pre-immune serum as control), blots with anti-HA and anti-GFP
T3 sequence: T2 sequence

binding [3]: binds
B5: PP2C.D5-HA (enzyme, UniProt Q5PNS9 1-400)
chain: MLSGLMNFLNACLWPRSDQQARSASDSGGRQEGLLWFRDSGQHVFGDFSMAVVQANSLLEDQSQLESGSLSSHDSGPFGTFVGVYDGHGGPETSRFINDHMFHHLKRFTAEQQCMSSEVIKKAFQATEEGFLSIVTNQFQTRPQIATVGSCCLVSVICDGKLYVANAGDSRAVLGQVMRVTGEAHATQLSAEHNASIESVRRELQALHPDHPDIVVLKHNVWRVKGIIQVSRSIGDVYLKRSEFNREPLYAKFRLRSPFSKPLLSAEPAITVHTLEPHDQFIICASDGLWEHMSNQEAVDIVQNHPRNGIAKRLVKVALQEAAKKREMRYSDLKKIDRGVRRHFHDDITVIVVFFDTNLVSRGSMLRGPAVSVRGAGVNLPHNTLAPCTTPTQAAAAGAS

binding [2]: no binding
B6: PP2C.D9, yeast two-hybrid prey from pACT2-PP2C.D9 (enzyme, UniProt Q84JD5 1-393)
chain: MFSWLARMALFCLRPMRRYGRMNRDDDDDDDHDGDSSSSGDSLLWSRELERHSFGDFSIAVVQANEVIEDHSQVETGNGAVFVGVYDGHGGPEASRYISDHLFSHLMRVSRERSCISEEALRAAFSATEEGFLTLVRRTCGLKPLIAAVGSCCLVGVIWKGTLLIANVGDSRAVLGSMGSNNNRSNKIVAEQLTSDHNAALEEVRQELRSLHPDDSHIVVLKHGVWRIKGIIQVSRSIGDAYLKRPEFSLDPSFPRFHLAEELQRPVLSAEPCVYTRVLQTSDKFVIFASDGLWEQMTNQQAVEIVNKHPRPGIARRLVRRAITIAAKKREMNYDDLKKVERGVRRFFHDDITVVVIFIDNELLMVEKATVPELSIKGFSHTVGPSKFSIFLS

binding [1]: binds
B10: PP2C.D6-YFP^C (enzyme, UniProt Q9SD12 21-379)
chain: KSSDSTGKQDGLLWYKDFGQHLVGEFSMAVVQANNLLEDQSQVESGPLSTLDSGPYGTFIGIYDGHGGPETSRFVNDHLFQHLKRFAAEQASMSVDVIKKAYEATEEGFLGVVTKQWPTKPQIAAVGSCCLVGVICGGMLYIANVGDSRAVLGRAMKATGEVIALQLSAEHNVSIESVRQEMHSLHPDDSHIVMLKHNVWRVKGLIQISRSIGDVYLKKAEFNKEPLYTKYRIREPFKRPILSGEPTITEHEIQPQDKFLIFASDGLWEQMSNQEAVDIVQNHPRNGIARRLVKMALQEAAKKREMRYSDLKKIERGVRRHFHDDITVVIIFLDTNQVSSVKGPPLSIRGGGMTFPKKI

binding [3]: no binding
B11: PP2C.D6-HA (enzyme, UniProt Q9SD12 21-379)
chain: B10 chain

Second part, the binder before the results:

B1: PP2C.D2-YFP^C (enzyme, UniProt Q0V7V2 1-384)
chain: MSGSLMNLFSLCFKPFGHVCDNSEAGSGGGGGVSGGTGGEGKDGLLWFRDLGKYCGGDFSMAVIQANQVLEDQSQVESGNFGTFVGVYDGHGGPEAARYVCDHLFNHFREISAETQGVVTRETIERAFHATEEGFASIVSELWQEIPNLATVGTCCLVGVIYQNTLFVASLGDSRVVLGKKGNCGGLSAIQLSTEHNANNEDIRWELKDLHPDDPQIVVFRHGVWRVKGIIQVSRSIGDMYMKRPEFNKEPISQKFRIAEPMKRPLMSATPTILSHPLHPNDSFLIFASDGLWEHLTNEKAVEIVHNHPRAGSAKRLIKAALHEAARKREMRYSDLRKIDKKVRRHFHDDITVIVVFLNHDLISRGHINSTQDTTVSIRSALEH
binding [1]: binds

B2: PP2C.D4, yeast two-hybrid prey from pACT2-PP2C.D4 (enzyme, UniProt Q94CL8 1-384)
chain: MVSTTFRRIVSPCWRPFGIGEDSSPGSDDTNGRLDGLLWYKDSGNHITGEFSMAVVQANNLLEDHSQLESGPISLHESGPEATFVGVYDGHGGPEAARFVNDRLFYNIKRYTSEQRGMSPDVITRGFVATEEEFLGLVQEQWKTKPQIASVGACCLVGIVCNGLLYVANAGDSRVVLGKVANPFKELKAVQLSTEHNASIESVREELRLLHPDDPNIVVLKHKVWRVKGIIQVSRSIGDAYLKRAEFNQEPLLPKFRVPERFEKPIMRAEPTITVHKIHPEDQFLIFASDGLWEHLSNQEAVDIVNSCPRNGVARKLVKAALQEAAKKREMRYSDLEKIERGIRRHFHDDITVIVVFLHATNFATRTPISVKGGGLLSAHNPVL
binding [2]: binds

B3: PP2C.D5-YFP^C (enzyme, UniProt Q5PNS9 1-400)
chain: B5 chain
binding [1]: binds

B4: PP2C.D5, yeast two-hybrid prey from pACT2-PP2C.D5 (enzyme, UniProt Q5PNS9 1-400)
chain: B5 chain
binding [2]: binds

B7: PP2C.D8, yeast two-hybrid prey from pACT2-PP2C.D8 (enzyme, UniProt O81760 1-380)
chain: MLRALARPLERCLGSRASGDGLLWQSELRPHAGGDYSIAVVQANSRLEDQSQVFTSSSATYVGVYDGHGGPEASRFVNRHLFPYMHKFAREHGGLSVDVIKKAFKETEEEFCGMVKRSLPMKPQMATVGSCCLVGAISNDTLYVANLGDSRAVLGSVVSGVDSNKGAVAERLSTDHNVAVEEVRKEVKALNPDDSQIVLYTRGVWRIKGIIQVSRSIGDVYLKKPEYYRDPIFQRHGNPIPLRRPAMTAEPSIIVRKLKPQDLFLIFASDGLWEHLSDETAVEIVLKHPRTGIARRLVRAALEEAAKKREMRYGDIKKIAKGIRRHFHDDISVIVVYLDQNKTSSSNSKLVKQGGITAPPDIYSLHSDEAEQRRLLNVLY
binding [2]: binds

B8: PP2C.D6, yeast two-hybrid prey from pACT2-PP2C.D6 (enzyme, UniProt Q9SD12 1-379)
chain: MLSTLMKLLSACLWPSSSSGKSSDSTGKQDGLLWYKDFGQHLVGEFSMAVVQANNLLEDQSQVESGPLSTLDSGPYGTFIGIYDGHGGPETSRFVNDHLFQHLKRFAAEQASMSVDVIKKAYEATEEGFLGVVTKQWPTKPQIAAVGSCCLVGVICGGMLYIANVGDSRAVLGRAMKATGEVIALQLSAEHNVSIESVRQEMHSLHPDDSHIVMLKHNVWRVKGLIQISRSIGDVYLKKAEFNKEPLYTKYRIREPFKRPILSGEPTITEHEIQPQDKFLIFASDGLWEQMSNQEAVDIVQNHPRNGIARRLVKMALQEAAKKREMRYSDLKKIERGVRRHFHDDITVVIIFLDTNQVSSVKGPPLSIRGGGMTFPKKI
binding [2]: binds

B9: PP2C.D3, yeast two-hybrid prey from pACT2-PP2C.D3 (enzyme, UniProt Q9LHJ9 1-385)
chain: MVSSATILRMVAPCWRRPSVKGDHSTRDANGRCDGLLWYKDSGNHVAGEFSMSVIQANNLLEDHSKLESGPVSMFDSGPQATFVGVYDGHGGPEAARFVNKHLFDNIRKFTSENHGMSANVITKAFLATEEDFLSLVRRQWQIKPQIASVGACCLVGIICSGLLYIANAGDSRVVLGRLEKAFKIVKAVQLSSEHNASLESVREELRSLHPNDPQIVVLKHKVWRVKGIIQVSRSIGDAYLKKAEFNREPLLAKFRVPEVFHKPILRAEPAITVHKIHPEDQFLIFASDGLWEHLSNQEAVDIVNTCPRNGIARKLIKTALREAAKKREMRYSDLKKIDRGVRRHFHDDITVIVVFLDSHLVSRSTSRRPLLSISGGGDLAGPST
binding [2]: binds
